Test system: CB1 receptor knockout C57Bl/6J mice
Assay: Open-field test, ambulation behavior, CB1 receptor knockout mice
Format: in vivo
Details: CB1 receptor knockout female mice

Structure (SMILES)	ambulation behavior (BCP 10 mg/kg one hour after PCP)	ambulation behavior (PCP 5 mg/kg vs control group)
C=C1CC/C=C(\C)CC[C@@H]2[C@@H]1CC2(C)C [BCP, beta-caryophyllene]	did NOT reverse this behavior	–
c1ccc(C2(N3CCCCC3)CCCCC2)cc1 [PCP, Phencyclidine]	–	significantly elevated

From patent publication US20190241962A1, “GENETIC SUSCEPTIBILITY DIAGNOSIS AND TREATMENT OF MENTAL DISORDERS” (priority 2016, published 2019)
